Data: PubChem BioAssay AID938 (National Center for Advancing Translational Sciences (NCATS), 2007)
The campaign covered roughly 73,000 compounds. About 1,800 (2.5%) were called active. Roughly 13% stayed inconclusive and do not appear here. The call rests on the fitted dose curve; in most records, active means well fitted activation curve with a large enough effect; inconclusive means small, poorly fitted or top-dose-only effect; inactive means no such curve, though single readings can be large or run the other way. The list shows a part of the results, in another mix than the full data.

Test: qHTS Assay for Agonists of the Thyroid Stimulating Hormone Receptor: Activators of Intracellular cAMP Concentrations in Parental HEK 293; further: nearly all actives have a fitted effect of over 55% in size; on activation: % of control where 0% means no effect
Details: parental HEK293 CNG cAMP sensor, membrane potential fluorescence; series mostly up to 57.1 µM; activation: at the top concentration
Description: NIH Chemical Genomics Center [NCGC]
NIH Molecular Libraries Screening Centers Network [MLSCN]
PI Name: Dr. Marvin Gershengorn
This cell based assay utilized a cyclic nucleotide gated ion channel (CNG) as a biosensor for cAMP induction. HEK 293 cells stably expressing the modified CNG were purchased from BD biosciences (http://www.atto.com/products/actone/features_benefits.shtml) . Stimulation of cAMP production causes the CNG to open and subsequent membrane depolarization to occur. A fluorescent membrane potential dye (BD biosciences) was utilized to detect cAMP stimulation in cells.
The cells were maintained in DMEM medium (Invitrogen) containing 10 % FBS (Hyclone), 100 units/ml Penicillin, 100 ug/ml Streptomycin (Invitrogen), and 250 ug/ml Geneticin (Invitrogen) and 1 ug/ml Puromycin (Invitrogen) at 37C in 5% CO2. This assay was used as a counterscreen to "qHTS Assay for Agonists of the Thyroid Stimulating Hormone Receptor", to control for compounds signaling through endogenous receptors and other targets of HEK 293 cells.
NCGC Assay Protocol Summary:
High Throughput Screening. Freshly passaged cells were dispensed into 1536-well assay plates at 4 ul/well in DMEM containing phenol red (Invitrogen), 10% FCS (Hyclone), and 100 units/ml Penicillin, 100 ug/ml Streptomycin (Invitrogen) and incubated at 37 C with 5% CO2 for 20 to 36 hrs before the robotic screening. The screen was initiated by addition of 4 ul/well membrane potential dye containing 100 uM RO 20-1724 (Sigma Aldrich), followed by 60 min incubation at room temperature to allow for dye equilibration across the cell membrane. 23 nl/well compound or control was then added to the assay plates, which were incubated for additional 30 min before reading a Envision fluorescence plate reader (Perkin Elmer) in bottom-read mode for fluorescence intensity (emission at 590 nm).
Keywords: cAMP, CNG Ion Channel, quantitative high throughput screening, qHTS, HTS, probe identification, CNG, cAMP, cyclic nucleotide gated ion channel PubChem
Potency means the concentration at half of the fitted maximal effect.

Structure (SMILES)	Potency	activation
Cc1nc2sccn2c(=O)c1CCN1CCC(=C(c2ccc(F)cc2)c2ccc(F)cc2)CC1	inactive	
CCOC(=O)c1ccc(-n2ncc(C(=O)OCC)c2N)cc1		inactive: -2.35%
CNc1sc(C(=O)c2cccs2)c(N)c1-c1nc2ccccc2s1		inactive: -47%
COc1ccc2nc(C)cc(Nc3ccc(N4CCOCC4)cc3)c2c1		inactive: -53.3%
CC1CCCC(C)N1C(=O)Cn1c(SCC(=O)NCc2ccc3c(c2)OCO3)nc2ccccc21 (centres undefined)	active: 15.8 µM	
CC(C)CC1(C(=O)NCCN2CCOCC2)C=CCN1C(=O)c1ccccc1 (centres undefined)		inactive: 23.3%
CCOC(=O)CCn1nc(-c2ccc(Cl)cc2)cc1N		inactive: 7.3%
CCC/C=C(\CCC)C(NS(=O)(=O)c1cccc2cccnc12)c1ccc(C(=O)OC)cc1 (centres undefined)		inactive: 35.7%
N=c1nc(N2CCCCC2)cc(N)n1O	inactive	
COC(=O)c1sc(NC(=O)c2ccc(Cn3cc(Cl)cn3)o2)c(C#N)c1C		inactive: -34.1%
O=C(CSc1nnc(-c2cnccn2)n1Cc1ccco1)c1ccc(Cl)c(Cl)c1	active: 25.1 µM	
Nc1nc2c(nc(Br)n2[C@@H]2O[C@H]3COP(=O)(O)O[C@H]3[C@@H]2O)c(=O)[nH]1		inactive: -3.67%
CCN(CC)CCNC(=O)C(C(=O)c1ccccc1)n1ccccc1=O (centres undefined)		inactive: -139%
O[C@@](CCN1CCCCC1)(c1ccccc1)C1CCCCC1		inactive: 32.1% [at 25.6 µM]
Cc1ccc(S(=O)(=O)N(CC(=O)O)Cc2cccc(C)c2)cc1		inactive: 6.31%
N#CCCn1c(=O)c(-c2cc(F)cc(F)c2)nc2cnc(Oc3ccccc3)nc21		inactive: -30.7%
COc1ccc(CNc2cc(-c3ccccc3C)ncn2)c(OC)c1	active: 15.8 µM	
COc1ccc(-c2nc3cnccn3c2Nc2ccc3c(c2)OCO3)cc1		inactive: -31.1%
Clc1ccc(C(c2ccccc2Cl)C(Cl)Cl)cc1 (centres undefined)		inactive: 4.97%
CC12CCC(C(=O)NCc3ccccc3)(OC1=O)C2(C)C (centres undefined)		inactive: -56.3%
COc1ccc(S(=O)(=O)N2CCC(C(=O)N3CCc4ccccc4C3)CC2)cc1	active: 31.6 µM	
Cn1c(O)c(N=N/C(=N/c2ccccn2)c2ccccn2)c2cc(Br)ccc21		inactive: -46.4%
CCCNC(=O)NS(=O)(=O)c1ccc(Cl)cc1	inactive	
CCOC(=O)C1CCCN(Cc2ccc(OC)cc2OC)C1 (centres undefined)	active: 31.6 µM	
CCN(CC)c1ccc(/C=N/NC(=O)c2ccc(O)cc2)cc1		inactive: -33.7%
CCC(c1nnnn1Cc1cccs1)N1CCN(C2CCCC2)CC1 (centres undefined)	active: 5.01 µM	
Cc1ccc(-c2noc(CCC(=O)NCCc3ccccc3Cl)n2)cc1		inactive: -30.3%
CCOc1ccc2nc(NC(=O)Cn3cnc4c3c(=O)n(C)c(=O)n4C)sc2c1		inactive: -41.4%
Cc1ccc(CCNC(=O)C2CCC(=O)N2C(C)C)cc1 (centres undefined)		inactive: -32.6%
